Counter-ions that a name gives are not always drawn. ± gives the standard deviation of the averaged measurements. Over roughly 1,300 compounds, “normalised cell viability” has its median near 1; the lowest 2% begin near 0.14. This is one part of the list.

For the experiment, the system named is V-C8 (BRCA2-deficient hamster cells). The experiment in a line: normalised cell viability (fraction of plate median); higher = more viable cells (less toxic). The conditions noted are these: 5 µM. Summed up: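 Library drugs, held as 10 mM stocks in DMSO, were diluted to 5 μM in 100 μl medium and added to 96-well plates of V-C8 hamster cells, either lacking BRCA2 or with BRCA2 restored, 24 h after seeding. Plates ran for 3 days (screen 1) or 6 days (screen 2), alongside solvent-only wells. Viability came from a resazurin readout, median-plate normalised, as the mean of triplicate wells.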

Take `CC1(C)S[C@@H]2[C@H](NC(=O)[C@H](C(=O)O)c3ccsc3)C(=O)N2[C@H]1C(=O)O` [Ticarcillin sodium]: the normalised cell viability is, setting by setting: (treatment time: 3 days) 1.03 ± 0.049; (treatment time: 6 days) 0.9851 ± 0.0039.
On the same counts, the results for `COC(=O)C1=C(C)NC(C)=C(C(=O)OC2CCCN(Cc3ccccc3)C2)C1c1cccc([N+](=O)[O-])c1` (stereo unspecified) [Benidipine hydrochloride] are 0.94 ± 0.04 and 0.863 ± 0.04.
In turn, `C[C@]12C[C@H](O)[C@H]3[C@@H](CCC4=CC(=O)CC[C@@]43C)[C@@H]1CC[C@@H]2C(=O)CO` [Corticosterone] yielded a normalised cell viability (treatment time: 3 days) of 1.01 ± 0.15 and a normalised cell viability (treatment time: 6 days) of 1.05 ± 0.11.
`CC[C@H]1OC(=O)C[C@@H](O)[C@H](C)[C@@H](O[C@@H]2O[C@H](C)[C@@H](O[C@H]3C[C@@](C)(O)[C@@H](O)[C@H](C)O3)[C@H](N(C)C)[C@H]2O)[C@@H](CC=O)C[C@@H](C)C(=O)/C=C/C(C)=C/[C@@H]1CO[C@@H]1O[C@H](C)[C@@H](O)[C@@H](OC)[C@H]1OC` [Tylosin] gave a normalised cell viability (treatment time: 3 days) of 1.02 ± 0.036 and a normalised cell viability (treatment time: 6 days) of 0.978 ± 0.077.
On the same counts, the results for `O=C(CCCCCCC(=O)Nc1ccccc1)NO` [Vorinostat] are 0.14 ± 0.012 and 0.168 ± 0.012.
On the same counts, the results for `CC1(C)O[C@@H]2C[C@H]3[C@@H]4CCC5=CC(=O)C=C[C@]5(C)[C@H]4[C@@H](O)C[C@]3(C)[C@]2(C(=O)CO)O1` [Desonide] are 1.02 ± 0.014 and 0.981 ± 0.026.
As for `C/C(=C(\CCOP(=O)(O)O)SC(=O)c1ccccc1)N(C=O)Cc1cnc(C)nc1N` [Benfotiamine], the normalised cell viability came to 0.942 ± 0.095 (treatment time: 3 days) and 1.02 ± 0.028 (treatment time: 6 days).
`CCN(CC)C(=S)SSC(=S)N(CC)CC` [Disulfiram]: the normalised cell viability reads like this: (treatment time: 3 days) 0.237 ± 0.038; (treatment time: 6 days) 0.667 ± 0.0071.
On the same counts, the results for `Nc1c2c(nc3ccccc13)CCCC2` [Tacrine hydrochloride] are 0.984 ± 0.031 and 1.1 ± 0.049.
Turning to `CC[C@H](C)C(=O)O[C@H]1C[C@@H](C)C=C2C=C[C@H](C)[C@H](CC[C@@H]3C[C@@H](O)CC(=O)O3)[C@H]21` [Lovastatin], the normalised cell viability is, setting by setting: (treatment time: 3 days) 0.213 ± 0.0055; (treatment time: 6 days) 0.172 ± 0.007.
On to `Cc1c(C)c2c(c(C)c1O)CCC(C)(C(=O)O)O2` (stereo unspecified) [Trolox], for which the normalised cell viability turned out to be 1.05 ± 0.051 (treatment time: 3 days) and 1.01 ± 0.074 (treatment time: 6 days).
On the same counts, the results for `CCN(CC)CCOC(=O)c1ccc(N)cc1` [Procaine hydrochloride] are 0.9991 ± 0.0032 and 1.033 ± 0.0093.
On the same counts, the results for `CC(=O)O[C@H]1C[C@@]2(C)[C@@H](C[C@@H](O)[C@H]3[C@@]4(C)CC[C@@H](O)[C@@H](C)[C@@H]4CC[C@@]32C)/C1=C(\CCC=C(C)C)C(=O)O` [Fusidic acid sodium salt] are 1.04 ± 0.011 and 1.07 ± 0.048.
On the same counts, the results for `CC(=O)N[C@@H](CS)C(=O)O` [Acetylcysteine] are 1.04 ± 0.049 and 1.01 ± 0.15.
As to `CN(C)CCn1nnnc1SCC1=C(C(=O)O)N2C(=O)[C@@H](NC(=O)Cc3csc(N)n3)[C@H]2SC1` [Cefotiam hydrochloride], the normalised cell viability runs as follows: (treatment time: 3 days) 0.996 ± 0.028; (treatment time: 6 days) 1.12 ± 0.093.
On the same counts, the results for `CNC[C@H](O)[C@@H](O)[C@H](O)[C@H](O)CO` [Meglumine] are 0.951 ± 0.02 and 1 ± 0.027.
`Nc1ccc(S(=O)(=O)Nc2cnc3ccccc3n2)cc1` [Sulfaquinoxaline sodium salt]: the normalised cell viability came to 1.04 ± 0.024 (treatment time: 3 days) and 1.11 ± 0.17 (treatment time: 6 days).
On the same counts, the results for `NCCCC(O)(P(=O)(O)O)P(=O)(O)O` [Alendronate sodium] are 0.709 ± 0.1 and 0.515 ± 0.033.
Turning to `NC(=O)OCC(COC(N)=O)c1ccccc1` [Felbamate], the normalised cell viability by setting is: (treatment time: 3 days) 1.07 ± 0.023; (treatment time: 6 days) 1.19 ± 0.044.
As for `C[C@H]1NC(=O)NC1=O` [Methylhydantoin-5-(D)], the normalised cell viability is, setting by setting: (treatment time: 3 days) 0.968 ± 0.032; (treatment time: 6 days) 0.954 ± 0.077.
For `Cc1ccnc(NS(=O)(=O)c2ccc(N)cc2)n1` [Sulfamerazine], the normalised cell viability was 1.05 ± 0.017 (treatment time: 3 days) and 1.01 ± 0.013 (treatment time: 6 days).
Regarding `N=C(N)NCc1cccc(I)c1` [Iobenguane sulfate], the normalised cell viability by setting is: (treatment time: 3 days) 1.043 ± 0.0067; (treatment time: 6 days) 1.052 ± 0.0059.
On the same counts, the results for `CC(C)n1c(/C=C/C(O)CC(O)CC(=O)O)c(-c2ccc(F)cc2)c2ccccc21` (stereo unspecified) [Fluvastatin sodium salt] are 0.121 ± 0.0047 and 0.156 ± 0.004.
On the same counts, the results for `CC(=O)Oc1ccccc1C(=O)Oc1ccccc1C(=O)O` [Acetylsalicylsalicylic acid] are 1.06 ± 0.02 and 1.04 ± 0.078.
On the same counts, the results for `CCCCNc1cc(C(=O)O)cc(S(N)(=O)=O)c1Oc1ccccc1` [Bumetanide] are 1.06 ± 0.081 and 1.05 ± 0.065.
Consider `CNC(=O)c1c(I)c(C(=O)NCC(=O)Nc2c(I)c(C(=O)O)c(I)c(C(=O)NCCO)c2I)c(I)c(N(C)C(C)=O)c1I` [Ioxaglic acid], for which the normalised cell viability worked out at 1.27 ± 0.34 (treatment time: 3 days) and 1.03 ± 0.011 (treatment time: 6 days).
Consider `CC(C)NC[C@H](O)COc1cccc2ccccc12` [(S)-propranolol hydrochloride], for which the normalised cell viability is, setting by setting: (treatment time: 3 days) 1.06 ± 0.02; (treatment time: 6 days) 1.03 ± 0.011.
On the same counts, the results for `OCCN1CCN(CCCN2c3ccccc3C=Cc3ccccc32)CC1` [Opipramol dihydrochloride] are 1.05 ± 0.028 and 1.02 ± 0.027.
Consider `CC(=O)CCCCn1c(=O)c2c(ncn2C)n(C)c1=O` [Pentoxifylline], for which the normalised cell viability was found to be 1.17 ± 0.067 (treatment time: 3 days) and 1.05 ± 0.027 (treatment time: 6 days).
On the same counts, the results for `CN1C(=O)OC(C)(C)C1=O` [Trimethadione] are 1.22 ± 0.09 and 1.06 ± 0.05.
For `CN(C/C=C/c1ccccc1)Cc1cccc2ccccc12` [Naftifine hydrochloride], the normalised cell viability is 0.199 ± 0.019 (treatment time: 3 days) and 0.219 ± 0.0077 (treatment time: 6 days).
As to `O=C(NCCN1CCOCC1)c1ccc(Cl)cc1` [Moclobemide], the normalised cell viability is 1.06 ± 0.044 (treatment time: 3 days) and 1.03 ± 0.037 (treatment time: 6 days).
With `CN(C)CCCSC(=N)N` [Dimaprit dihydrochloride], the normalised cell viability was 1.02 ± 0.029 (treatment time: 3 days) and 0.988 ± 0.011 (treatment time: 6 days).
